Growth data for 1 compound are collected here from PubChem BioAssay (NCI).

Each structure is given as a SMILES string. A structure can be active in one record and inactive in another.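 Cell lines were cultured in 96-well plates, exposed to a single compound concentration, and assessed for percent growth 48 hours later.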 Not every entry of the source has a single result; some have several. The list is limited to them. An entry can have further records. For part of these data: This drug was run again and again over the years, at its own concentration, as given; one value stands for one run. Marks such as (2×) say how often a value occurs here. Entries with a single value are a further part of the results. Activity calls are given as the source filed them. How the source made its calls: active means growth percent below 10; inactive means the rest.

One assay deals with HS 578T breast. Kind of assay: NCI-60 one-dose screen, 48 h (100 = growth as untreated, 0 = no growth, -100 = all killed). Particulars: 25 µM.
The test system of a further assay is NCI/ADR-RES ovarian. The description is as above. The conditions noted are these: 0.25 µM.

For `COc1cccc2c1C(=O)c1c(O)c3c(c(O)c1C2=O)C[C@@](O)(C(=O)CO)C[C@@H]3OC1CC(N)C(O)C(C)O1` (stereo not given in full), the growth result is “active: -25.9, -44.2, -18.3, -44.1, -46.6, -19.5, -53.9, -29.7, -15.1 (2×), -33.8, -41.5, -39, -55.1, -28.4, -29.2, -32.3, -60.8, -43.3, -47, -51.3, -31.3, -38.4, -51.5, -56.6, -20.5, -59.9, -23.5, -54.2, -43, -39.9, -55, -38.1, -72.3, -58.8, 7.12, -42.4, -39.1, -37.1, -33.1, -13.4, -7.49, -19.9%” in the assay on HS 578T breast (runs of 1993); “active: -47.8, -27.1, -31.9, -49.8, -24.4, -29.3, 9.43, -49.2, -60.4, -21, -35.9, -60.3, -29, -46.5, -29.8, -5.65, -36.8, -38.8, -45.8, -37, -42, -30.5, -29.9, -48.3, -28.4 (2×), -34.6, -18.5, -13.8%” with HS 578T breast (runs of 1994); “active: -45.4, -30.6, -40.4, -38.1, -16.9, -9.48, -31.1, -25.5, -33.4, -30.5, -33, -18.5, -30.2, -32.2, -36.9, -44.7, -58.4, -41.3, -62.1, -67.6, -31.4, -36.8, -60.1, -9.24, -55.3, -29.5, -26.9, -54.5, -40, -56.8, -36.5, -22.6, -23.2, -28.8, -38.8% and inactive: 10.9%, 12%” in the assay on HS 578T breast (runs of 1995); “active: -40.5, -44.4, -41.6, -31.4, -40.1, -21.2, -18.6, -26.2, -25.3, -19.8, -13.4, -31.3, -19.2, -22.1, -27.7, -42, -34.6, -6.85, -30.4, -52, -49.9, -55.9, -53.3, -41.1, -40.3 (2×), -49.5 (2×), -64.5, -44.8, -50.9, -32.2, -51.8, -53.2, -64, -43.9, -39.8, -48.6, -24.7, -27.9, -38.9, -33.2, -66, -50, -34.9, -11.1, -72.3, -46.6% and inactive: 94.5%, 90.8%” in the assay on HS 578T breast (runs of 1996); “active: -5.26, 2.56, -44.6, -35.8, -34.7, -22.1, -29.2 (2×), -52.5, -38.4, -46.5, -47.9, -53.3, -38.2, -30.5, -31.8, -55.4, -40.1, -28.8, -32.6, -47.2, -27.6, -48.5, -34.5, -13.3, -32.1, -42.4, -21.2, -37.1, -36.9, -36.7, -33.5, -8.85, -47.5, -43.5, -8.98, -32.2, -76.7, -54.8%” with HS 578T breast (runs of 1997); “active: -44.6, -65.6, -32.3, -13.6, -70.2, -56.9, -39.1, -19.1, -67.9, -25, -43.1, -48.7, -26.8% and inactive: 19.4%, 14.5%, 17.9%” in the assay on HS 578T breast (runs of 1998). Moreover, the growth entry in the assay with HS 578T breast (runs of 1999) is “active: -67.3, -29.6, -43.5, -60.9, -100 (2×), 1.07, -67, 3.27, -58.8, 2.49, -52.7, -48.1%”; with HS 578T breast (runs of 2000) it was active: -59.8%; with NCI/ADR-RES ovarian (runs of 2006), “inactive: 96.3%, 100%”; with NCI/ADR-RES ovarian (runs of 2007), “inactive: 85.7, 87.5, 104 (2×), 106 (3×), 99.2 (2×), 150, 89.3, 95, 98.6, 99, 86.7, 101 (2×), 103 (2×), 111, 117, 42.2, 96.2, 97 (2×), 105 (2×), 115, 90.5, 67.5, 37.5, 107 (2×), 126, 116, 94.7, 95.2, 96.5%”; in the assay with NCI/ADR-RES ovarian (runs of 2008) it was “inactive: 94.6, 95.2, 104 (4×), 98.8, 100 (6×), 103 (2×), 93.4, 90.9, 97.7 (2×), 98.9, 99.6, 124, 94.7 (2×), 93.3 (2×), 99.7, 89.8, 112 (2×), 96.3, 97.3, 85, 117, 94.5, 110, 92.1, 92.3, 92.6, 96.4 (2×), 99.9, 88.5, 99.5, 98.2, 113, 105 (2×), 107, 98.1, 75.4%”; with NCI/ADR-RES ovarian (runs of 2009) it was “inactive: 89.6, 91.9 (2×), 87.3 (2×), 97.8, 96.6 (2×), 111 (3×), 112, 104 (2×), 95.2, 98.4, 110, 103 (4×), 96.4, 97.4, 101 (2×), 86.9, 97.3, 92.1, 108, 95.8 (2×), 95.4, 115, 99.3, 88.5, 89.8, 95, 105 (2×), 89.2, 87, 96.3, 96.2, 94.5, 86.8, 98.1, 107 (2×), 99, 106 (3×), 97.2, 95.7, 97.1, 98.7, 96.5%”. Besides, the growth entry in the assay on NCI/ADR-RES ovarian (runs of 2010) was “inactive: 105 (6×), 95.2 (2×), 99.1 (2×), 103 (6×), 100 (4×), 108 (2×), 97.6, 99, 106 (3×), 104 (6×), 91.8, 89.6, 101 (2×), 83.1, 85.4, 96.4, 98, 83.7, 98.7, 90.9, 98.6, 110%”; in the assay on NCI/ADR-RES ovarian (runs of 2011) it was “inactive: 108, 105 (3×), 107 (3×), 103 (9×), 96, 98.7 (4×), 106 (4×), 104 (6×), 97.7, 99.7, 99.5, 94.4, 101 (3×), 97.8, 94.5, 95.4, 98.6, 95.6, 99.6 (2×), 100, 97.3, 94, 96.7%”; in the assay on NCI/ADR-RES ovarian (runs of 2012), “inactive: 104 (4×), 97.4 (2×), 101 (9×), 105 (3×), 103 (4×), 109 (3×), 110 (6×), 98.8, 96.9, 106 (2×), 95.6, 100 (3×), 99.5, 107 (4×), 114, 93.9, 113 (3×), 112 (3×), 111 (5×), 108 (2×), 116, 93.4%”.
